According to the supplement of paper PMC4967469:

Assays:
Experiment in all cases: Viability of human cancer cell lines after 72 h of drug (GDSC screen)
UNC0638 = compound: COc1cc2c(NC3CCN(C(C)C)CC3)nc(C3CCCCC3)nc2cc1OCCCN1CCCC1 [UNC0638]
Description: (§1)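 Human cancer cell lines in 384-well plates, medium with 10% serum, drug for 72 h over a 256-fold dose range (nine 2-fold or five 4-fold steps up to the top dose). Adherent lines were fixed and stained with the nucleic acid dye Syto60, suspension lines read with resazurin; signal relative to control wells, capped at 0 and 100%. One two-parameter sigmoid per drug and line, fitted in a mixed model over all curves with the slope shared within a line.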

Tretinoin = compound: CC1=C(/C=C/C(C)=C/C=C/C(C)=C/C(=O)O)C(C)(C)CCC1 [Tretinoin]; details: top dose 10 µM; top dose inferred
Description: as §1

WH-4-023 = compound: COc1ccc(N(C(=O)Oc2c(C)cccc2C)c2ccnc(Nc3ccc(N4CCN(C)CC4)cc3)n2)c(OC)c1 [WH-4-023]; details: top dose 5.12 µM; top dose inferred
Description: as §1

BX-795 = compound: O=C(NCCCNc1nc(Nc2cccc(NC(=O)N3CCCC3)c2)ncc1I)c1cccs1 [BX-795]; details: top dose 5 µM; top dose inferred
Description: as §1

SB-505124 = compound: Cc1cccc(-c2[nH]c(C(C)(C)C)nc2-c2ccc3c(c2)OCO3)n1 [SB-505124]; details: top dose 10 µM; top dose inferred
Description: as §1

GSK690693 = compound: CCn1c(-c2nonc2N)nc2c(C#CC(C)(C)O)ncc(OC[C@H]3CCCNC3)c21 [GSK690693]; details: top dose 10.24 µM; top dose inferred
Description: as §1

PI-103 = compound: Oc1cccc(-c2nc(N3CCOCC3)c3oc4ncccc4c3n2)c1 [PI-103]; details: top dose 10.24 µM
Description: as §1

[1] = top dose 20 µM, screen: GDSC drug entry 1236, top dose inferred
[2] = top dose 40 µM, screen: GDSC drug entry 245

## SF268 (glioma, adherent)
UNC0638; [1]
  AUC: 0.743
  IC50: 6.59 µM
UNC0638; [2]
  AUC: 0.643
  IC50: 6.42 µM
Tretinoin
  AUC: 0.985
  IC50: > 10 µM
WH-4-023
  AUC: 0.728
  IC50: 1.51 µM
BX-795
  AUC: 0.853
  IC50: 4.37 µM
SB-505124
  AUC: 0.983
  IC50: > 10 µM
GSK690693
  AUC: 0.968
  IC50: > 10.2 µM
PI-103
  AUC: 0.663
  IC50: 1.89 µM

## SF539 (glioma, adherent)
UNC0638; [1]
  AUC: 0.645
  IC50: 3.01 µM
Tretinoin
  AUC: 0.948
  IC50: > 10 µM
WH-4-023
  AUC: 0.966
  IC50: > 5.12 µM
BX-795
  AUC: 0.858
  IC50: 3.46 µM
SB-505124
  AUC: 0.975
  IC50: > 10 µM
GSK690693
  AUC: 0.882
  IC50: 8.97 µM
PI-103
  AUC: 0.608
  IC50: 1.23 µM

## SH-4 (melanoma, adherent)
UNC0638; [1]
  AUC: 0.777
  IC50: 13.2 µM
UNC0638; [2]
  AUC: 0.644
  IC50: 7.8 µM
Tretinoin
  AUC: 0.95
  IC50: > 10 µM
WH-4-023
  AUC: 0.732
  IC50: 2.16 µM
BX-795
  AUC: 0.903
  IC50: > 5 µM
SB-505124
  AUC: 0.96
  IC50: > 10 µM
GSK690693
  AUC: 0.97
  IC50: > 10.2 µM
PI-103
  AUC: 0.745
  IC50: 4.89 µM

## SHP-77 (small cell lung carcinoma, semi-adherent)
UNC0638; [1]
  AUC: 0.966
  IC50: > 20 µM
UNC0638; [2]
  AUC: 0.764
  IC50: 13.1 µM
Tretinoin
  AUC: 0.992
  IC50: > 10 µM
WH-4-023
  AUC: 0.98
  IC50: > 5.12 µM
BX-795
  AUC: 0.991
  IC50: > 5 µM
SB-505124
  AUC: 0.991
  IC50: > 10 µM
GSK690693
  AUC: 0.985
  IC50: > 10.2 µM
PI-103
  AUC: 0.815
  IC50: 4.89 µM

## SIMA (neuroblastoma, adherent)
UNC0638; [1]
  AUC: 0.804
  IC50: 11.6 µM
UNC0638; [2]
  AUC: 0.689
  IC50: 9.14 µM
Tretinoin
  AUC: 0.985
  IC50: > 10 µM
WH-4-023
  AUC: 0.838
  IC50: 4.12 µM
BX-795
  AUC: 0.95
  IC50: > 5 µM
SB-505124
  AUC: 0.96
  IC50: > 10 µM
GSK690693
  AUC: 0.953
  IC50: > 10.2 µM
PI-103
  AUC: 0.723
  IC50: 3.02 µM

## SJSA-1 (bone, adherent)
UNC0638; [1]
  AUC: 0.755
  IC50: 7.56 µM
UNC0638; [2]
  AUC: 0.662
  IC50: 7.48 µM
Tretinoin
  AUC: 0.975
  IC50: > 10 µM
WH-4-023
  AUC: 0.967
  IC50: > 5.12 µM
BX-795
  AUC: 0.904
  IC50: > 5 µM
SB-505124
  AUC: 0.966
  IC50: > 10 µM
GSK690693
  AUC: 0.907
  IC50: > 10.2 µM
PI-103
  AUC: 0.507
  IC50: 0.67 µM

## SK-ES-1 (Ewing sarcoma, semi-adherent)
UNC0638; [1]
  AUC: 0.855
  IC50: 17.5 µM
UNC0638; [2]
  AUC: 0.676
  IC50: 8.04 µM
Tretinoin
  AUC: 0.9
  IC50: > 10 µM
WH-4-023
  AUC: 0.971
  IC50: > 5.12 µM
BX-795
  AUC: 0.811
  IC50: 2.87 µM
SB-505124
  AUC: 0.971
  IC50: > 10 µM
GSK690693
  AUC: 0.862
  IC50: 9.69 µM
PI-103
  AUC: 0.558
  IC50: 0.93 µM

## SK-LMS-1 (soft tissue, adherent)
UNC0638; [1]
  AUC: 0.785
  IC50: 8.13 µM
UNC0638; [2]
  AUC: 0.784
  IC50: 16.1 µM
Tretinoin
  AUC: 0.965
  IC50: > 10 µM
WH-4-023
  AUC: 0.977
  IC50: > 5.12 µM
BX-795
  AUC: 0.822
  IC50: 2.74 µM
SB-505124
  AUC: 0.97
  IC50: > 10 µM
GSK690693
  AUC: 0.967
  IC50: > 10.2 µM
PI-103
  AUC: 0.297
  IC50: 0.178 µM

## SK-MEL-1 (melanoma, suspension)
UNC0638; [1]
  AUC: 0.827
  IC50: 10.1 µM
UNC0638; [2]
  AUC: 0.755
  IC50: 12 µM
Tretinoin
  AUC: 0.993
  IC50: > 10 µM
WH-4-023
  AUC: 0.99
  IC50: > 5.12 µM
BX-795
  AUC: 0.951
  IC50: > 5 µM
SB-505124
  AUC: 0.971
  IC50: > 10 µM
GSK690693
  AUC: 0.992
  IC50: > 10.2 µM
PI-103
  AUC: 0.92
  IC50: > 10.2 µM

## SK-MEL-2 (melanoma, adherent)
UNC0638; [1]
  AUC: 0.829
  IC50: 13.1 µM
UNC0638; [2]
  AUC: 0.879
  IC50: > 40 µM
Tretinoin
  AUC: 0.972
  IC50: > 10 µM
WH-4-023
  AUC: 0.957
  IC50: > 5.12 µM
BX-795
  AUC: 0.867
  IC50: 4.79 µM
SB-505124
  AUC: 0.985
  IC50: > 10 µM
GSK690693
  AUC: 0.972
  IC50: > 10.2 µM
PI-103
  AUC: 0.795
  IC50: 4.94 µM

## SK-MM-2 (myeloma, suspension)
UNC0638; [1]
  AUC: 0.808
  IC50: 10.9 µM
UNC0638; [2]
  AUC: 0.673
  IC50: 7.77 µM
Tretinoin
  AUC: 0.985
  IC50: > 10 µM
WH-4-023
  AUC: 0.974
  IC50: > 5.12 µM
BX-795
  AUC: 0.967
  IC50: > 5 µM
SB-505124
  AUC: 0.986
  IC50: > 10 µM
GSK690693
  AUC: 0.857
  IC50: 8.91 µM
PI-103
  AUC: 0.496
  IC50: 0.624 µM

## SK-N-FI (neuroblastoma, adherent)
UNC0638; [1]
  AUC: 0.988
  IC50: > 20 µM
UNC0638; [2]
  AUC: 0.974
  IC50: > 40 µM
Tretinoin
  AUC: 0.958
  IC50: > 10 µM
WH-4-023
  AUC: 0.971
  IC50: > 5.12 µM
BX-795
  AUC: 0.989
  IC50: > 5 µM
SB-505124
  AUC: 0.952
  IC50: > 10 µM
GSK690693
  AUC: 0.988
  IC50: > 10.2 µM
PI-103
  AUC: 0.848
  IC50: 7.55 µM

## SK-PN-DW (Ewing sarcoma, adherent)
UNC0638; [1]
  AUC: 0.815
  IC50: 11.5 µM
UNC0638; [2]
  AUC: 0.78
  IC50: 17.1 µM
Tretinoin
  AUC: 0.838
  IC50: 7.1 µM
WH-4-023
  AUC: 0.972
  IC50: > 5.12 µM
BX-795
  AUC: 0.733
  IC50: 1.48 µM
SB-505124
  AUC: 0.961
  IC50: > 10 µM
GSK690693
  AUC: 0.898
  IC50: > 10.2 µM
PI-103
  AUC: 0.662
  IC50: 1.84 µM

## SK-UT-1 (soft tissue, adherent)
UNC0638; [1]
  AUC: 0.988
  IC50: > 20 µM
UNC0638; [2]
  AUC: 0.989
  IC50: > 40 µM
Tretinoin
  AUC: 0.976
  IC50: > 10 µM
WH-4-023
  AUC: 0.924
  IC50: > 5.12 µM
BX-795
  AUC: 0.81
  IC50: 2.34 µM
SB-505124
  AUC: 0.98
  IC50: > 10 µM
GSK690693
  AUC: 0.989
  IC50: > 10.2 µM
PI-103
  AUC: 0.814
  IC50: 4.97 µM

A lower IC50 marks a more sensitive line; fits outside the tested doses are given as limits. The AUC spans the tested range (256-fold, ending at the top dose) of the same fit: 1 means no effect, lower means more sensitive. For part of these data: Where the top dose is marked as inferred, it was calculated from the reported fits. For part of these data: An entry number marks a drug with two screens in the source, which often give different values.
